From PubChem BioAssay AID463173 (ICCB-Longwood Screening Facility, Harvard Medical School, 2010) come the findings set out here.

In all, about 52,000 compounds went through this assay and about 4,300 (8.3%) were called active. No stated cut-off is given here; in the data, active means survival mostly below about 52% (no sharp cut-off); inactive means mostly above about 56%. The list shows a part of the results.

The assay concerns DeltatarO mutant. The experiment in a line: S. aureus survival, RN4220 and DeltatarO strains – OD600, teichoic acid synthesis inhibitors, primary screen (AID 463173). To be noted: S. aureus RN4220 wild type/DeltatarO growth, OD600, 18 h, active compounds read low, screened at 18.75 µg/mL (by protocol).
Regarding `CCOC(=O)c1c(C)oc2nc(C)nc(NCc3cccc(Cl)c3)c12`, the survival was inactive: 87%.
As to `CCCCOc1cccc(NC(=O)c2cccc(C(=O)Nc3cccc(OCCCC)c3)c2)c1`, the survival is inactive: 75%.
The same measure for `CCOC(=O)c1nc(Nc2ccc(C(=O)OC)cc2)c2ccccc2n1`: inactive: 57%.
On to `CC(=O)C1=C(c2ccc(Br)cc2)N(C(C)=O)n2c(nnc2C2CCCCC2)S1`, for which the survival is inactive: 88%.
`CCn1ccc2cc(S(=O)(=O)N3CCC(C(=O)NCCc4ccccc4)CC3)ccc21`: the survival was inactive: 102%.
Next, `COc1cc(OC)c(NC(=O)c2c(C)oc3nc(C)nc(N4CCOCC4)c23)cc1Cl`: inactive: 92%; `CCOC(=O)C1=C(O)CSC1=NC(=O)c1ccc(OC)cc1`: inactive: 99%; `COc1cccc(-n2cc(C(=O)OCc3ccc(Cl)cc3)c3ccccc3c2=O)c1`: inactive: 85%.
Next, `Cc1cccc(CNC(=O)c2ccc(C)c(-n3c(C)nc4cccnc43)c2)c1`: inactive: 67%; `CCOc1ccc(-n2c(=O)c3c(C)c(C)sc3n(CC(=O)N3CCC(C)CC3)c2=O)cc1`: inactive: 71%; `CC(C)CC(=O)Nc1nnc(SCc2cc(=O)n3ccccc3n2)s1`: inactive: 71%.
With `CCc1nnc(NC(=O)c2sc3nc4ccc(OC)cc4cc3c2N)s1`, the survival was inactive: 77%.
As to `Cc1ccc(CCNC(=O)c2cn(C)c3ccc(S(=O)(=O)N4CCC(C)CC4)cc3c2=O)cc1`, the survival is inactive: 72%.
Next, `Cc1cc(C)c(NC(=O)CCCn2c(C)c3cnn(-c4ccccc4)c(=O)c3c2C)c(C)c1`: inactive: 94%; `CCOC(=O)c1c(S(=O)(=O)NCC(=O)Nc2ccc(F)cc2C)c(C)n(C)c1C`: inactive: 83%; `COc1cc(OC)cc(-c2nc3nc(C)c(CCC(=O)NCCC(C)C)c(C)n3n2)c1`: inactive: 88%.
The same measure for `O=C(Nc1ccccc1C(F)(F)F)c1ccncc1`: inactive: 91%.
Take `COc1ccccc1NC(=O)CN1C(=O)CSc2ccc(S(=O)(=O)N3CCCC3)cc21`: the survival is inactive: 99%.
Next, `CCN(CC)S(=O)(=O)c1ccc2[nH]cc(C(=O)NCCc3ccccc3)c(=O)c2c1`: inactive: 75%.
Next, `COc1cc(C2C(=O)N(C3CCCCC3)CC(=O)N2CCC2=CCCCC2)ccc1OC(C)C` (stereo not drawn): inactive: 102%; `COc1cccc(CNC(=O)CSc2nnc(C)c3c(C)n(-c4ccccc4)nc23)c1OC`: inactive: 83%.
Turning to `CCOC(=O)C1CCCN(C(=O)Cn2ncc3c(C)n(Cc4ccccc4F)c(C)c3c2=O)C1` (stereo not drawn), the survival was inactive: 116%.
On to `Cc1cc(C)cc(NC2=C(c3ccccc3)C(=O)c3ccccc32)c1`, for which the survival is active: 39%.
Take `COC(=O)CNC(c1ccccc1)c1cc(Br)ccc1NC(=O)c1ccccc1` (stereo not drawn): the survival is inactive: 52%.
Next, `COc1cccc(-n2cc(C(=O)Nc3cc(OC)c(OC)c(OC)c3)c3ccccc3c2=O)c1`: inactive: 87%; `CCOC(=O)c1cccc(NC(=O)c2cc(S(=O)(=O)N3CCCC(C)C3)cn2C)c1` (stereo not drawn): inactive: 86%.
As to `CC(=O)N1N=C(N)SC1(C)c1ccccc1` (stereo not drawn), the survival was inactive: 83%.
Next, `CC1=C(C(N)=O)C(c2ccc(C)cc2)n2nc(SCc3ccccc3F)nc2N1` (stereo not drawn): inactive: 67%; `CCN(CC)c1ccc(C=C2C(=O)OC3(CCCC3)OC2=O)cc1`: inactive: 83%.
The same measure for `CCN(CC)C(=O)N1CCc2cc(OC)c(OC)cc2C1c1cc2cc(C)ccc2n(C(=O)N(CC)CC)c1=O` (stereo not drawn): inactive: 91%; for `Fc1ccc(N2CCN(c3ncnc4c3nc3n4CCCCC3)CC2)cc1`: inactive: 81%; for `Cc1cccc(NC(=O)Nc2ccc(Br)cc2)n1`: inactive: 126%.
Next, `CCOCCCn1c(=N)c(C(=O)NCc2cccnc2)cc2c(=O)n3cc(C)ccc3nc21`: inactive: 79%; `CCOC(=O)c1cnc2c(ccc3ccccc32)c1Nc1ccc(OCC)cc1`: active: 5%; `COc1ccc(S(=O)(=O)c2c(O)c3ccc(C(=O)NCc4ccccc4)cc3[nH]c2=O)cc1`: inactive: 64%.
`Cc1ccc(-n2nc3c(N4CCC(C(=O)NC(C)c5ccccc5)CC4)nnc(C)c3c2C)cc1` (stereo not drawn): the survival was inactive: 107%.
Next, `NC(=S)Cc1c[nH]c2ccccc12`: inactive: 91%; `CCOc1ccc(Nc2cc(C)nc3nc(Cc4ccc(Cl)cc4)nn23)cc1`: inactive: 62%.
The same measure for `O=C(Cn1ccc2ccccc2c1=O)NCCC(=O)Nc1ccc(F)cc1F`: inactive: 62%; for `COc1ccccc1N1CCN(C(=O)c2c(C)oc3ncn(CC(C)C)c(=O)c23)CC1`: inactive: 76%.
Next, `COCCOC(=O)C1=C(C)NC(=S)NC1c1ccc(C)c(OC)c1` (stereo not drawn): inactive: 89%; `CCN1CCN(c2ccc(NC(=O)c3cccc(Cl)c3Cl)cc2)CC1`: inactive: 92%.
Regarding `COc1ccc(-c2cc(C(F)(F)F)nc(SCC(=O)N3CCCCC3C)n2)cc1OC` (stereo not drawn), the survival is inactive: 52%.
The same measure for `CCc1cccc(C)c1NC(=O)C1CCN(c2nn3c(=O)cc(C)nc3s2)CC1`: inactive: 119%.
Regarding `O=C(NCc1ccccc1)C1CCCN(c2ncccn2)C1` (stereo not drawn), the survival is inactive: 88%.
The same measure for `Cc1onc(-c2c(F)cccc2Cl)c1C(=O)Nc1ccc(OC(C)C)cc1`: inactive: 62%.
Next, `Cc1ccc2oc(=O)c3cc(C(=O)Nc4ccccc4C(N)=O)sc3c2c1`: inactive: 85%; `C/C(=N\NC(N)=O)C1CC(c2ccccc2)C(=O)O1` (stereo not drawn): inactive: 74%.
Consider `Cc1ccc2c(c1)N(CC(=O)N1CCCCC1C)C(=O)CO2` (stereo not drawn), for which the survival is inactive: 93%.
Next, `CCOC(=O)c1c(N)sc2c(OC)c(Br)ccc12`: active: 1%.
The same measure for `CCCC(=O)N1CCCC(c2nc(-c3cccs3)no2)C1` (stereo not drawn): inactive: 107%; for `CCN(CC)Cc1c(NC(=O)c2ccc(OC)cc2)sc2c1CCCC2`: inactive: 71%.
On to `COc1ccc(CCNC(=O)Cn2c(=O)c3cccn3c3ccc(F)cc32)c(OC)c1`, for which the survival was inactive: 77%.
Next, `O=C(Nc1ccc2c(c1)oc1ccccc12)C(F)(F)F`: inactive: 97%.
Turning to `Cc1ccc(C)c(-c2nnc(NC(=O)c3ccc4c(c3)OCCO4)o2)c1`, the survival was inactive: 96%.
Turning to `CC(=O)Nc1ccc(Nc2nc3c(S(=O)(=O)c4cccc(Cl)c4)nnn3c3ccsc23)cc1`, the survival is inactive: 54%.
The same measure for `COc1ccc(-c2cc(C(=O)Oc3cccc(C)c3)c3cc(C)ccc3n2)cc1`: active: 13%; for `COc1ccc(CCNC(=O)c2cnc3sc(N4CCCCC4)nn3c2=O)cc1OC`: inactive: 85%.
